Reference: PubChem BioAssay AID1508623 (National Center for Advancing Translational Sciences (NCATS), 2021)
About 450 (0.94%) of roughly 48,000 compounds were called active. The inconclusive results got no clear call from the source; some entries with a clear call stand among them for comparison. The call rests on the fitted dose curve; in most records, active means well fitted inhibition curve with a large enough effect; inconclusive means small, poorly fitted or top-dose-only effect; inactive means no such curve, though single readings can be large or run the other way. A potency beside an inconclusive call is a rough fit, not a confirmed value.

Test: Primary qHTS for Identification of Small Molecule Inhibitors of Huntingtin Promoter Activity; further: nearly all actives have a fitted effect of over 50% in size
Conditions: HEK293 HTT promoter firefly luciferase reporter (activity 0% = vehicle and -100% = no light), 24 h; activity change, negative = inhibition: at 57.5 µM (top of the series)
In short: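 Quantitative HTS used concentration series of up to 57.5 uM final on HEK293 luciferase reporter cells, 24 h at 37 degrees C. Readout was Dual-Glo firefly luminescence.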
Potency means the concentration at half of the fitted maximal effect; tags describe the fitted curve by direction and shape.

SMILES	Potency	activity change, negative = inhibition
CCOc1ccc(NC(=O)CSc2oc(-c3ccco3)nc2S(=O)(=O)c2ccc(Cl)cc2)cc1	inconclusive: 35.5 µM [inhibitor, single point]	–
CCOC(=O)c1cc(-c2ccc(OC)cc2)n(CCC(=O)NC2CCC(C)CC2)c1C (centres undefined)	–	inactive: -10.5%
CCOc1ccc(-c2n[nH]c3c2C(c2cccs2)N(c2ccc(Br)cc2)C3=O)cc1 (centres undefined)	inconclusive: 22.4 µM [inhibitor, single point]	–
COc1ccc(N2CCN(C(=O)Nc3ccc(Cl)cc3)CC2)cc1	inconclusive: 39.8 µM [inhibitor, partial curve, poor fit]	–
CC(=O)N1c2ccc(S(=O)(=O)NCC3CCC(C(=O)Nc4cccc(F)c4)CC3)cc2CC1C (centres undefined)	inconclusive: 17.8 µM [inhibitor, partial curve, poor fit]	–
COc1ccc(S(=O)(=O)N2CCN(C(=O)c3cc(-c4ccc(Br)cc4)n[nH]3)CC2)cc1OC	inconclusive: 28.2 µM [inhibitor, partial curve, poor fit]	–
CCOc1ccc(NCc2cccn2-c2nnc(N3CCC(C(=O)NCCc4ccc(OCC)c(OCC)c4)CC3)s2)cc1	inconclusive: 22.4 µM [inhibitor, partial curve, poor fit]	–
Cc1cccc(NC(=O)C(=O)NCC(c2cccnc2)N2CCN(Cc3ccccc3)CC2)c1 (centres undefined)	inconclusive: 28.2 µM [inhibitor, partial curve, poor fit]	–
Cn1c(C(=O)NCCc2ccccc2)cc2cc(S(=O)(=O)N3CCCCC3)ccc21	inconclusive: 25.1 µM [inhibitor, single point]	–
CCOC(=O)c1c(Nc2ccc(OCC)cc2)nnc(-c2ccccc2)c1-c1ccccc1	inconclusive: 35.5 µM [inhibitor, partial curve]	–
COc1ccccc1NC(=O)CSc1ncc(CO)n1Cc1ccc(F)cc1	–	inactive: -13.6%
CC(C)c1cnc2c(c1SCC(=O)c1ccc(Cl)cc1)c(=O)n(C)c(=O)n2C	inconclusive: 35.5 µM [inhibitor, partial curve, poor fit]	–
CCOC(=O)c1cnc2cc(Cl)c(OC)cc2c1Nc1ccc(Br)cc1C	–	inactive: -8.31%
C#CCOc1c(Br)cc(C2C(C(=O)OC)=C(C)NC3=C2C(=O)c2ccccc23)cc1OCC (centres undefined)	inconclusive: 10 µM [inhibitor, partial curve, poor fit]	–
CSc1ccc(CCNS(=O)(=O)c2cc(-c3cc(C)no3)ccc2C)cc1	inconclusive: 22.4 µM [inhibitor, single point]	–
CCn1cc2nc(SCc3c(F)cccc3Cl)n(CCc3ccccc3)c(=O)c2n1	inconclusive: 7.08 µM [inhibitor, single point]	–
COc1ccc(Cl)cc1S(=O)(=O)Nc1ccc2c(c1)n(C)c(=O)n2C	inconclusive: 25.1 µM [inhibitor, partial curve]	–
COc1ccc(NC(=O)C(=O)Nc2ccc3nc4n(c(=O)c3c2)CCCCC4)c(OC)c1	–	inactive: 15.3%
CCOc1ccc(NCc2cccn2-c2nnc(N3CCC(C(=O)NC(C)c4ccccc4)CC3)s2)cc1 (centres undefined)	inconclusive: 1 µM [inhibitor, full curve, poor fit]	–
COc1cccc(CN2c3ccccc3-c3nc(SCC(=O)Nc4cccc(C)c4)ncc3S2(=O)=O)c1	inconclusive: 25.1 µM [inhibitor, partial curve, poor fit]	–

SMILES	Potency	activity change, negative = inhibition
CCN1C(C(=O)c2ccccc2)=C(OC(=O)c2ccc(Cl)cc2)c2ccccc2S1(=O)=O	inconclusive: 39.8 µM [inhibitor, single point]	–
CCOC(=O)c1cccc(NC(=O)N2Cc3ccccc3Oc3ncccc32)c1	inconclusive: 39.8 µM [inhibitor, single point]	–
COc1ccc(N2CCN(CC(O)COc3ccc(C)c(C)c3)CC2)cc1 (centres undefined)	–	inactive: -22.5%
Cn1c(NCc2ccccc2F)nc2ccccc21	–	inactive: 70.3%
CCOC(=O)C1CCN(C(=O)c2ccc3c(c2)sc2nc(-c4ccc(OCC)cc4)cn23)CC1	inconclusive: 22.4 µM [inhibitor, partial curve, poor fit]	–
CC(=O)c1cccc(-n2c(CCC(=O)O)ccc2-c2ccccc2)c1	–	inactive: -1.8%
COc1ccc(CNC(=O)c2cnn(-c3ccc(C)cc3)c2C2CCN(C(=O)OC(C)(C)C)CC2)cc1	inconclusive: 25.1 µM [inhibitor, single point]	–
COc1ccc(/C=C(\NC(=O)c2ccccc2)C(=O)NC2CCCCC2)cc1	–	inactive: -3.88%
Cc1cc(C)cc(N(CC(=O)Nc2ccc(C(F)(F)F)cc2)S(=O)(=O)c2c(C)[nH]c(=O)[nH]c2=O)c1	inconclusive: 28.2 µM [inhibitor, partial curve, poor fit]	–
COc1ccccc1C(=O)N1CCC(c2c[nH]c3ccccc23)(c2c[nH]c3ccccc23)CC1	inconclusive: 20 µM [inhibitor, partial curve, poor fit]	–
O=C(CSc1nc(-c2ccccc2)[nH]c1-c1ccc(F)cc1)NC1CCCC1	inconclusive: 28.2 µM [inhibitor, single point]	–
COc1ccc(CCNC(=O)c2cc3cccc4c3n2CC(C)S4)c(OC)c1OC (centres undefined)	inconclusive: 8.91 µM [inhibitor, partial curve, poor fit]	–
CC(C)c1ccc(S(=O)(=O)Nc2cc3c(cc2NCc2ccccc2)n(C)c(=O)n3C)cc1	inconclusive: 39.8 µM [inhibitor, single point]	–
O=C(CN1C(=O)COc2ccc(S(=O)(=O)N3CCCCCC3)cc21)N1CCN(c2cccc(Cl)c2)CC1	inconclusive: 39.8 µM [inhibitor, single point]	–
COc1ccc(C(=O)c2cn(Cc3ccc(F)cc3)c3c(F)cc(F)cc3c2=O)cc1	inconclusive: 20 µM [inhibitor, partial curve, poor fit]	–
O=C(C1COc2cc(S(=O)(=O)Nc3ccc(Cl)cc3)ccc2O1)N1CCCC1 (centres undefined)	inconclusive: 25.1 µM [inhibitor, partial curve]	–
CC(C)NS(=O)(=O)c1ccc(OCC(=O)N2CCN(c3cccc(Cl)c3)CC2)cc1	inconclusive: 20 µM [inhibitor, partial curve]	–
CCOC(=O)c1ccc(N2C(=O)c3n[nH]c(-c4ccco4)c3C2c2cccc(F)c2)cc1 (centres undefined)	inconclusive: 22.4 µM [inhibitor, partial curve, poor fit]	–
CN1C(=O)c2ccccc2Sc2ccc(NC(=O)NCc3ccccc3Br)cc21	inconclusive: 31.6 µM [inhibitor, single point]	–
O=C(C1CCCN(S(=O)(=O)c2cccs2)C1)N1CCN(c2ccccc2F)CC1 (centres undefined)	inconclusive: 25.1 µM [inhibitor, partial curve, poor fit]	–

SMILES	Potency	activity change, negative = inhibition
Cc1cccc(N2CCN(C(=O)CCNS(=O)(=O)c3ccc4c(c3)CCN4C(=O)C3CC3)CC2C)c1 (centres undefined)	inconclusive: 22.4 µM [inhibitor, single point]	–
c1ccc(CNc2ncnc3[nH]ncc23)cc1	inconclusive: 22.4 µM [inhibitor, single point]	–
COC(=O)c1ccc(NC(=O)c2cc3cc(C)ccc3n2C)cc1	–	inactive: -51.6%
COc1ccc(S(=O)(=O)N2CCC(C(=O)Nc3ccc(Oc4ccccc4)cc3)CC2)cc1OC	inconclusive: 8.91 µM [inhibitor, full curve, poor fit]	–
COc1ccc(NC(=O)c2ccc(-c3nc(COc4ccccc4)c(C)o3)cc2)cc1	inconclusive: 7.94 µM [inhibitor, full curve, poor fit]	–
CCCn1c2ccccc2c2cnn(CC(=O)Nc3ccccc3OC)c(=O)c21	inconclusive: 25.1 µM [inhibitor, partial curve, poor fit]	–
Cc1cccc(NC(c2cccc(Cl)c2)c2ccc3cccnc3c2O)n1 (centres undefined)	active: 10 µM	–
Cc1ccc2c(CC(=O)Nc3ccc(S(=O)(=O)N4CCC(C)CC4)cc3)coc2c1	inconclusive: 25.1 µM [inhibitor, partial curve, poor fit]	–
CCc1ccccc1NC(=O)Cn1nc(-c2cc(C)ccc2C)c2c(c1=O)CCCC2	–	inactive: -15.6%
CCOC(=O)c1c(NC(=O)CSc2cn(CCNC(=O)c3ccc(OC)cc3)c3ccccc23)sc2c1CCC2	inconclusive: 39.8 µM [inhibitor, single point]	–
COc1ccc(-c2cn3nc(N4CCCC(C(=O)Nc5ccccc5F)C4)sc3n2)cc1 (centres undefined)	inconclusive: 28.2 µM [inhibitor, single point]	–
CCCCN(CCCNC(=O)c1cc(Nc2ccc(OC)cc2OC)nc2ccccc12)Cc1ccccc1	–	inactive: -20.8%
COc1ccc(C(CNC(=O)COc2cc(C)c(Cl)c(C)c2)N2CCCCC2)cc1 (centres undefined)	inconclusive: 35.5 µM [inhibitor, single point]	–
OCCN1CCN(CCCN2c3ccccc3Sc3ccc(Cl)cc32)CC1	–	inactive: -18.2%
Cc1ccc(OCc2cc(=O)n3c4c(sc3n2)CCCC4)c(C)c1	–	inactive: -0.434%
Cc1ccc(CNS(=O)(=O)c2ccc(F)c(C(=O)Nc3ccc(C)c(F)c3)c2)cc1	–	inactive: -21.5%
O=C(NCCS(=O)(=O)N1CCN(c2ccccc2F)CC1)c1cc(=O)c2ccccc2o1	inconclusive: 39.8 µM [inhibitor, single point]	–
Cc1csc2nc(COC(=O)c3ccccc3NC(=O)c3ccccc3Cl)cc(=O)n12	inconclusive: 12.6 µM [inhibitor, partial curve, poor fit]	–
COc1cc(OC)c(NC(=O)C(C)n2c(=O)cc(-c3ccccc3)c3c(C)nn(C)c32)cc1Cl (centres undefined)	inconclusive: 39.8 µM [inhibitor, single point]	–
